# In PubChem BioAssay (NCATS):
# The inconclusive results got no clear call from the source; some entries with a clear call stand among them for comparison. For part of these data: Potencies of inconclusive entries are doubtful fits and often do not repeat. The source made the active and inactive calls. Calls follow the shape of the dose curve; as a rule, active = well fitted curve in the direction sought with a large enough effect; inconclusive = small, poorly fitted or top-dose-only effect, or another doubt; inactive = no such curve, though single readings can be large; an effect the other way counts as inactive or inconclusive.
# Tests used:
# [1] = P-glycoprotein substrates identified in KB-8-5-11 adenocarcinoma cell line, qHTS therapeutic library screen (AID 1346987); also: nearly all actives have a fitted effect of over 65% in size
# Summary of the method: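 Steps: plate 500 KB-8-5-11 cells/well in DMEM + 10% FCS (colchicine removed); pin compounds in dose-response; incubate 72 h, 37 degree C, 5% CO2; add CellTiter-Glo, 5 min; read luminescence.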
# [2] = system: Zika virus NS2B-NS3 protease (unlinked complex); assay: Primary screen GU Rhodamine qHTS for Zika virus inhibitors: Unlinked NS2B-NS3 protease assay (AID 1347159); also: nearly all actives have a fitted effect of over 60% in size
# Summary of the method: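 Noncovalent NS2B hydrophilic domain–NS3 protease domain complex (25 nM) preincubated 15 min at room temperature with compounds (up to 114 microM) in 10 mM Tris-HCl pH 8.0, 0.01% Tween 20; 1.5 microM Rhodamine110 substrate added, fluorescence change over 15 min fitted to Hill equation.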
# [3] = system: HEK293; assay: Cytotoxic Profiling of Annotated Libraries Using Quantitative High-Throughput Screening (AID 1296008); details: Five cell lines viability, CellTiter-Glo ATP luminescence, 48-72 h; max response: stronger effect = lower value; also: nearly all actives have a fitted effect of over 60% in size; as to max response: % is scaled to controls: 0 for no effect and ±100 for the full control effect
# Summary of the method: (§1)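 Compounds were pin-transferred onto cells and incubated 48 or 72 hr at 37 degree Celsius, 95% humidity. CellTiter-Glo was added, plates sat 10 min at room temperature, then ATP-coupled luminescence was imaged as the viability read-out.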
# [4] = system: NIH3T3; assay: as above; details: Five cell lines viability, CellTiter-Glo ATP luminescence, 48-72 h; max response: stronger effect = lower value
# Summary of the method: as §1
# [5] = system: SKOV3; assay: Primary qHTS to identify gynecologic anti-cancer compounds using libraries of approved drugs and bioactive compounds (AID 1345084); details: Gynecologic cancer cell panel viability, ATPlite luminescence, 48 h; series mostly up to 57.5 µM; also: nearly all actives have a fitted effect of over 55% in size
# Summary of the method: (§2)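 Measured: luminescence after ATPlite addition (15 min, RT). Exposure: 48 h, 37 C, 5% CO2.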
# [6] = Primary qHTS for inhibitors of nuclear receptor binding SET domain protein 2 (NSD2) in an isogenic RCH-ACV NSD2 p.E1099K mutant (9B) (AID 1645876); also: nearly all actives have a fitted effect of over 70% in size
# [7] = Primary qHTS for inhibitors of nuclear receptor binding SET domain protein 2 (NSD2) in an RCH-ACV wild type WT cells (2C) (AID 1645877); details: activity change, negative = cell killing: at 44.9 µM (top of the series); also: nearly all actives have a fitted effect of over 70% in size; as to activity change, negative = cell killing: % is scaled to controls: 0 for no effect and ±100 for the full control effect
# [8] = Primary redox qHTS assay for identification of artifact compounds. (AID 1845223)
# Summary of the method: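 Amplex Red (25 uM) and HRP (250 mU/mL) in HBSS, with compounds for 15 min, then 250 uM DTT for 30 min, room temperature, dark. Fluorescence 525/598 nm read; normalized to DMSO and 10 uM DA3003; Hill fit.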
# [9] = system: OV90; assay: Primary qHTS to identify gynecologic anti-cancer compounds using libraries of approved drugs and bioactive compounds (AID 1345084); details: Gynecologic cancer cell panel viability, ATPlite luminescence, 48 h; series mostly up to 57.5 µM; also: nearly all actives have a fitted effect of over 55% in size
# Summary of the method: as §2
# Potency is read from the fitted curve at half-maximal effect; tags tell the direction and shape of the fitted curve.
smiles,measurement,setting,value
O=S(=O)(Cc1ccccc1)Nc1ccc(-c2ccc3c(cnn3-c3ccc(F)cc3)c2)c(C(F)(F)F)c1,Potency,[1],"inconclusive: 29.1 µM [inhibitor, single point]"
same,Potency,[2],active: 20 µM
same,Potency,[3],"inconclusive: 29.1 µM [inhibitor, single point]"
same,max response,[4],inactive: -4.39%
same,Potency,[5],"inconclusive: 0.141 µM [cytotoxic, full curve, poor fit]"
CCC1=C(C)C(=O)C(C)CC12C(=O)CCC2C(=O)O (stereo unspecified),Potency,[1],inactive
same,Potency,[6],inactive
same,Potency,[7],inactive
same,max response,[3],inactive: -5.13%
same,outcome,[4],inactive
CC1(C)C=Cc2c(ccc3c2[N+]([O-])=C2C3(O)CC34NC(=O)C5(CCCN5C3=O)CC4C2(C)C)O1 (stereo unspecified),Potency,[2],"inconclusive: 20 µM [inhibitor, full curve, poor fit]"
same,Potency,[8],"inconclusive: 11.6 µM [activator, single point]"
same,max response,[3],inactive: -1.32%
same,outcome,[4],inactive
Cc1cc(OCCCS(C)(=O)=O)cc(C)c1-c1cccc(COc2ccc3c(c2)OCC3CC(=O)O)c1 (stereo unspecified),Potency,[2],active: 12.6 µM
same,Potency,[8],inactive
same,Potency,[3],"inconclusive: 18.4 µM [inhibitor, single point]"
same,outcome,[4],inactive
CC1CCC2C(C(=O)O)=CC3(O)CC(C)(C)CC123 (stereo unspecified),outcome,[3],inactive
same,max response,[4],inactive: 1.6%
C=C(CCC1C(C)(O)CCC2C(C)(C)C(O)CCC12C)C(O)CO (stereo unspecified),Potency,[2],active: 39.8 µM
same,Potency,[6],"inconclusive: 10.1 µM [inhibitor, partial curve, poor fit]"
same,Potency,[7],"inconclusive: 16 µM [inhibitor, partial curve, poor fit]"
same,Potency,[3],"inconclusive: 20.2 µM [inhibitor, single point]"
same,max response,[4],inactive: -4.7%
O=C1[C@H](O[C@@H]2O[C@H](CO)[C@@H](O)[C@H](O)[C@H]2O)Oc2ccccc2N1O,Potency,[6],inactive
same,outcome,[3],inactive
same,max response,[4],inactive: 0.0797%
same,Potency,[5],"inconclusive: 0.316 µM [rising, partial curve, poor fit]"
COc1cccc(CN(C(=O)CC(C)(C)C)[C@H]2C[C@H](C(=O)N3CCNCC3)N(Cc3ccc4c(c3)OCO4)C2)c1,Potency,[6],"inconclusive: 23 µM [inhibitor, single point]"
same,Potency,[7],"inconclusive: 20.5 µM [inhibitor, single point]"
same,Potency,[8],"inconclusive: 5.97 µM [activator, full curve, poor fit]"
same,Potency,[3],"inconclusive: 29.1 µM [inhibitor, single point]"
same,Potency,[4],"inconclusive: 3.66 µM [inhibitor, partial curve, poor fit]"
same,Potency,[9],inactive
CC1(C)CCC(C)(C)c2cc3c(cc21)Sc1ccccc1N=C3c1ccc(C(=O)O)cc1,Potency,[2],active: 2.51 µM
same,outcome,[3],inactive
same,max response,[4],inactive: 3.93%
CC(=O)c1cc2c(cc1O)OC(C)(C)C=C2,Potency,[7],inactive
same,max response,[3],inactive: 0.43%
same,max response,[4],inactive: -4.07%
COc1ccc(NC(=O)c2ccc(C(=N)N(C)C)cc2)c(C(=O)Nc2ccc(Cl)cn2)c1,Potency,[3],"inconclusive: 29.1 µM [inhibitor, single point]"
same,Potency,[4],"inconclusive: 23.1 µM [inhibitor, single point]"
COc1nc2sc(C(=O)NC3CC3)c(N)c2c(C)c1Cl,Potency,[6],"inconclusive: 25.8 µM [inhibitor, partial curve]"
same,Potency,[7],"inconclusive: 29 µM [inhibitor, single point]"
same,Potency,[8],"inconclusive: 8.44 µM [activator, single point]"
same,max response,[3],inactive: -8.8%
same,Potency,[4],"inconclusive: 29.1 µM [inhibitor, single point]"
same,Potency,[5],"inconclusive: 39.8 µM [cytotoxic, single point]"
CC(=O)O[C@@H]1c2c(C)coc2C(=O)[C@@]23O[C@@H]2CC[C@H](C)[C@@]13C,Potency,[7],inactive
same,max response,[3],inactive: 2.56%
same,max response,[4],inactive: 4.3%
same,Potency,[9],inactive
C=CC1(C)CC(O)C(C(=C)C(=O)OC)C(O)C1C(=C)CO (stereo unspecified),Potency,[6],"inconclusive: 29 µM [inhibitor, single point]"
same,Potency,[7],"inconclusive: 20.5 µM [inhibitor, single point]"
same,Potency,[3],"inconclusive: 29.1 µM [inhibitor, single point]"
same,max response,[4],inactive: -4.78%
same,Potency,[5],inactive
CC[C@H]1OC(=O)[C@H](C)[C@@H](O[C@H]2C[C@@](C)(OC)[C@@H](O)[C@H](C)O2)[C@H](C)[C@@H](O[C@H]2O[C@H](C)C[C@H](N(C)C)[C@H]2O)[C@](C)(O)C[C@@H](C)C(=O)[C@H](C)[C@@H](O)[C@]1(C)O,Potency,[6],inactive
same,Potency,[3],"inconclusive: 15.9 µM [inhibitor, single point]"
same,Potency,[4],"inconclusive: 11.2 µM [inhibitor, single point]"
Cc1nn(C)c(COc2ccc(N3CCN(S(=O)(=O)N(C)C)CC3)cc2)c1-c1cccc2c(CCCOc3cccc4ccccc34)c(C(=O)O)n(CCN3CCOCC3)c12,Potency,[2],active: 4.47 µM
same,Potency,[8],inactive
same,outcome,[3],inactive
same,Potency,[4],"inconclusive: 37.1 µM [inhibitor, single point]"
same,Potency,[5],inactive
